# The list shows a part of the results.
# B1: MIC13 (Toxoplasma gondii), A0A125YWL1 (protein)
# chain: IQLRQHRNGLGVEQSFVSEETDIVGGRISSLQAELDSYCHNRYKQLCDGGNKKFCDKTGVARYGTGIQSQQTAEWRCYFAEVLKPSGRKVQCVDDCGNYFPCLGVVDPNDTFHATAHNQILNFIKDGVEKHCSPFQMAGNNYCQGVLADTVARKDTGTASQKAKAWRCYKKDSLTYEARSICVDNCGGEIECPGGRSETSGELLSQHYTREKELQKVIESQSAPCHDACVATPINPPICADTESLLQSTKRSRAQRFIDDACQKLFNCHCKKDKKFCTTVVARKDRGRAGSQNDAEWRCYSLEELDFQKTNPSCIDECGNELPCQGAVPEESTHHITWTKLPSKIDEATQKFCTERQRAANDYCASEFADSLARYGPGAGDQTSQFRCIKKAAMRADAEGQCADSCKGTETCGGGRSRLDGPLSVDDVLNAHEGISEAMKSASTEC
# Key:
# Experiment in all cases: glycan array binding signal (z-score within array); higher = stronger binding
# Conditions in all cases: glycan notation: IUPAC condensed, linker removed
# [1] = molecular target: Neu5Ac(a2-3)Gal(b1-4)[Fuc(a1-3)]GlcNAc(b1-3)Gal(b1-4)[Fuc(a1-3)]GlcNAc(b1-3)Gal(b1-4)Glc
# How it was run: (§1)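 The Consortium for Functional Glycomics database supplied 3228 glycan arrays, of which those lacking an available protein sequence were dropped. The binding signal, a within-array Z-score, was averaged across arrays of the same protein sequence and across linkers. Negative scores can be read as non-binding.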
# [2] = molecular target: Neu5Ac(a2-3)Gal(b1-4)[Fuc(a1-3)]GlcNAc6S(b1-3)Gal(b1-4)Glc
# How it was run: as §1
# [3] = molecular target: Neu5Ac(a2-3)Gal6S(b1-4)[Fuc(a1-3)]GlcNAc(b1-3)Gal(b1-4)Glc
# How it was run: as §1
# [4] = molecular target: Neu5Ac(a2-3)Gal6S(b1-4)[Fuc(a1-3)]GlcNAc6S(b1-3)Gal(b1-4)Glc
# How it was run: as §1
# [5] = molecular target: Neu5Ac(a2-3)[GalNAc(b1-4)]Gal(b1-3)GalNAc(b1-4)[Neu5Ac(a2-3)]Gal(b1-4)Glc
# How it was run: as §1
# [6] = molecular target: Neu5Ac(a2-3)[GalNAc(b1-4)]Gal(b1-4)Glc
# How it was run: as §1
# [7] = molecular target: Neu5Ac(a2-6)Gal(b1-3)GlcNAc(b1-3)[Fuc(a1-3)[Gal(b1-4)]GlcNAc(b1-6)]Gal(b1-4)Glc
# How it was run: as §1
# [8] = molecular target: Neu5Ac(a2-6)Gal(b1-3)GlcNAc(b1-3)[Gal(b1-4)GlcNAc(b1-6)]Gal(b1-4)Glc
# How it was run: as §1
# Neu5Ac(a2-6)Gal(b1-4)Glc = molecular target: Neu5Ac(a2-6)Gal(b1-4)Glc
# How it was run: as §1
# [9] = molecular target: Neu5Ac(a2-6)Gal(b1-4)GlcNAc
# How it was run: as §1
# [10] = molecular target: Neu5Ac(a2-6)Gal(b1-4)GlcNAc(b1-2)Man(a1-3)[Neu5Ac(a2-6)Gal(b1-4)GlcNAc(b1-2)Man(a1-6)]Man(b1-4)GlcNAc(b1-4)GlcNAc
# How it was run: as §1
# [11] = molecular target: Neu5Ac(a2-6)Gal(b1-4)GlcNAc(b1-2)[Neu5Ac(a2-3)Gal(b1-4)GlcNAc(b1-4)]Man(a1-3)[Neu5Ac(a2-3)Gal(b1-4)GlcNAc(b1-2)Man(a1-6)]Man(b1-4)GlcNAc(b1-4)GlcNAc
# How it was run: as §1
# [12] = molecular target: Neu5Ac(a2-6)Gal(b1-4)GlcNAc(b1-3)Gal(b1-4)Glc
# How it was run: as §1
# [13] = molecular target: Neu5Ac(a2-6)Gal(b1-4)GlcNAc(b1-3)Gal(b1-4)[Fuc(a1-3)]Glc
# How it was run: as §1
# [14] = molecular target: Neu5Ac(a2-6)Gal(b1-4)GlcNAc(b1-3)[Neu5Ac(a2-6)Gal(b1-4)GlcNAc(b1-6)]Gal(b1-4)Glc
# How it was run: as §1
# [15] = molecular target: Neu5Ac(a2-6)Gal(b1-4)GlcNAc(b1-6)[Gal(b1-3)GlcNAc(b1-3)]Gal(b1-4)Glc
# How it was run: as §1
# [16] = molecular target: Neu5Ac(a2-6)Gal(b1-4)[Fuc(a1-3)]GlcNAc(b1-3)Gal(b1-4)Glc
# How it was run: as §1
# Neu5Ac(a2-8)Neu5Ac = molecular target: Neu5Ac(a2-8)Neu5Ac
# How it was run: as §1
# [17] = molecular target: Neu5Ac(a2-8)Neu5Ac(a2-3)Gal(b1-3)GalNAc(b1-4)[Neu5Ac(a2-3)]Gal(b1-4)Glc
# How it was run: as §1
# [18] = molecular target: Neu5Ac(a2-8)Neu5Ac(a2-3)Gal(b1-3)GalNAc(b1-4)[Neu5Ac(a2-8)Neu5Ac(a2-3)]Gal(b1-4)Glc
# How it was run: as §1
# [19] = molecular target: Neu5Ac(a2-8)Neu5Ac(a2-3)Gal(b1-4)Glc
# How it was run: as §1
# [20] = molecular target: Neu5Ac(a2-8)Neu5Ac(a2-3)[Gal(b1-3)GalNAc(b1-4)]Gal(b1-4)Glc
# How it was run: as §1
# [21] = molecular target: Neu5Ac(a2-8)Neu5Ac(a2-3)[GalNAc(b1-4)]Gal(b1-4)Glc
# How it was run: as §1
# [22] = molecular target: Neu5Ac(a2-8)Neu5Ac(a2-8)Neu5Ac
# How it was run: as §1
# [23] = molecular target: Neu5Ac(a2-8)Neu5Ac(a2-8)Neu5Ac(a2-8)Neu5Ac
# How it was run: as §1
# [24] = molecular target: Neu5Ac(a2-8)Neu5Ac(a2-8)Neu5Ac(a2-8)Neu5Ac(a2-8)Neu5Ac
# How it was run: as §1
# [25] = molecular target: Neu5Ac(a2-8)Neu5Ac(a2-8)Neu5Ac(a2-8)Neu5Ac(a2-8)Neu5Ac(a2-8)Neu5Ac
# How it was run: as §1
# [26] = molecular target: Neu5Ac(a2-8)Neu5Ac(a2-8)Neu5Ac(a2-8)Neu5Ac(a2-8)Neu5Ac(a2-8)Neu5Ac(a2-8)Neu5Ac
# How it was run: as §1
# [27] = molecular target: Neu5Ac(a2-8)Neu5Ac(a2-8)Neu5Ac(a2-8)Neu5Ac(a2-8)Neu5Ac(a2-8)Neu5Ac(a2-8)Neu5Ac(a2-8)Neu5Ac
# How it was run: as §1
# [28] = molecular target: Neu5Ac(a2-8)Neu5Ac(a2-8)Neu5Ac(a2-8)Neu5Ac(a2-8)Neu5Ac(a2-8)Neu5Ac(a2-8)Neu5Ac(a2-8)Neu5Ac(a2-8)Neu5Ac
# How it was run: as §1
# [29] = molecular target: Neu5Ac(a2-8)Neu5Ac(a2-8)Neu5Ac(a2-8)Neu5Ac(a2-8)Neu5Ac(a2-8)Neu5Ac(a2-8)Neu5Ac(a2-8)Neu5Ac(a2-8)Neu5Ac(a2-8)Neu5Ac
# How it was run: as §1
# [30] = molecular target: Neu5Ac(a2-8)Neu5Ac(a2-8)Neu5Ac(a2-8)Neu5Ac(a2-8)Neu5Ac(a2-8)Neu5Ac(a2-8)Neu5Ac(a2-8)Neu5Ac(a2-8)Neu5Ac(a2-8)Neu5Ac(a2-8)Neu5Ac
# How it was run: as §1
# [31] = molecular target: Neu5Ac(a2-9)Neu5Ac(a2-3)Gal(b1-4)Glc
# How it was run: as §1
# Neu5Ac(b2-3)Gal(b1-4)Glc = molecular target: Neu5Ac(b2-3)Gal(b1-4)Glc
# How it was run: as §1
# Neu5Ac(b2-6)Gal(b1-4)Glc = molecular target: Neu5Ac(b2-6)Gal(b1-4)Glc
# How it was run: as §1
# [32] = molecular target: Neu5Ac9Ac(a2-6)Gal(b1-4)GlcNAc
# How it was run: as §1
# Neu5Gc(a2-3)Gal(b1-4)Glc = molecular target: Neu5Gc(a2-3)Gal(b1-4)Glc
# How it was run: as §1
binder,measurement,setting,value
B1,glycan array binding signal (z-score),[1],-0.284
same,glycan array binding signal (z-score),[2],0.435
same,glycan array binding signal (z-score),[3],0.583
same,glycan array binding signal (z-score),[4],2.31
same,glycan array binding signal (z-score),[5],-0.287
same,glycan array binding signal (z-score),[6],-0.045
same,glycan array binding signal (z-score),[7],-0.287
same,glycan array binding signal (z-score),[8],-0.287
same,glycan array binding signal (z-score),Neu5Ac(a2-6)Gal(b1-4)Glc,-0.287
same,glycan array binding signal (z-score),[9],-0.275
same,glycan array binding signal (z-score),[10],-0.287
same,glycan array binding signal (z-score),[11],-0.282
same,glycan array binding signal (z-score),[12],-0.287
same,glycan array binding signal (z-score),[13],-0.287
same,glycan array binding signal (z-score),[14],-0.287
same,glycan array binding signal (z-score),[15],-0.287
same,glycan array binding signal (z-score),[16],-0.287
same,glycan array binding signal (z-score),Neu5Ac(a2-8)Neu5Ac,-0.287
same,glycan array binding signal (z-score),[17],-0.287
same,glycan array binding signal (z-score),[18],-0.287
same,glycan array binding signal (z-score),[19],-0.287
same,glycan array binding signal (z-score),[20],-0.287
same,glycan array binding signal (z-score),[21],-0.287
same,glycan array binding signal (z-score),[22],-0.287
same,glycan array binding signal (z-score),[23],-0.287
same,glycan array binding signal (z-score),[24],-0.221
same,glycan array binding signal (z-score),[25],-0.287
same,glycan array binding signal (z-score),[26],-0.287
same,glycan array binding signal (z-score),[27],-0.287
same,glycan array binding signal (z-score),[28],-0.287
same,glycan array binding signal (z-score),[29],-0.287
same,glycan array binding signal (z-score),[30],-0.287
same,glycan array binding signal (z-score),[31],8.12
same,glycan array binding signal (z-score),Neu5Ac(b2-3)Gal(b1-4)Glc,-0.287
same,glycan array binding signal (z-score),Neu5Ac(b2-6)Gal(b1-4)Glc,-0.287
same,glycan array binding signal (z-score),[32],-0.287
same,glycan array binding signal (z-score),Neu5Gc(a2-3)Gal(b1-4)Glc,-0.038

# Source: the supplement of paper PMC8728848
